Laboratory results taken from the RNAGym collection of RNA variant scans (doi:10.7554/elife.90254).
The source gives no read counts; variants with many changes may rest on few reads.

B1: LINE1-full (parent)
chain: UACGUAGGUGGUUUUCCCCUGAUAGUGCUAAGGGGGCCUGGAAGUUUGGACUGGGCAGAGCUCAACACAGCGUGGCAAAGUGGCUGUGGCUAGACUGCCUCUCUGGAUUCCUCGUCACUCAGCAGGGCAUCUCUGAGAGAAAUGCC

Variants of: B1
Assay: self-cleavage, relative activity (ratio to wild type); higher = more cleavage; in vitro, sequencing; the parent is a self-cleaving ribozyme

Variant	self-cleavage
U13A U39C A79G A107G A142G	0.48
U91G A124G A141G	0.03
G48A A59G U104C	0.06
U9C U13G A31U A78U	1.04
A78G U109A A140G	1.16
U23C A94G U130C	0.32
U14C U45A U81C	0
A6G U14C G105A A107G A117G	0.61
U12G A64G A67G U108A	0
U5C U73C C101A U115C U130A	2.51
G7U U14C A42G A129U A142U	1.34
U39C U52C A64U G75A	0.08
A57G U81A C128U	1.21
U39A A67U A140G	0.04
U96A U108C U109A A140G	0.12
A6U U26A G33A	0.72
U73G U104A U130C	0.98
A22G A77G A79G A142G	0.47
U9C A57G U119A	1.07
U20A U87C U109A	0.06
U26A A69U U115G	0.14

Variant	self-cleavage
A43G A64G U112C C113U C128U	0.19
U13A A43G A94G A117C U134C	0.46
A6G U12G U46C	0.29
U12G G34A G126A	0.77
C17U A77G U108C G114U U119C A136G	2.8
C16U U46A U104A	0.96
U14C U15C A141G	1.61
A6G G10A A129C	0.43
A42G U52A G89A	0.05
U9C U26A U62A	0.18
U12G U20C A107G C111U	1.48
U9G A77G U112C A142G	0.98
U29C G54U G126A G144A	1.02
A57U C71U U108C U119C A141G	0.12
A57G A94U A121G	1.48
U12C G21A A43G U100G	0.43
U62C A136C A138G	0.06
A50G U96G A121G	0
A6G U46C G48A	1.1
U14C A42G U104A	0.57
U39C A64U G105U	0.25

Variant	self-cleavage
A22G G89C A142C	0.17
U23A G40A A65U U85A	0.02
U12G C19U A121U	0
A50G G53A A57G A77G A117G	0
C38A G58U A64G	0.04
A2U U20C A42G A57U A142G	0.1
A22G A43G U85C	0
C3U G8A A64G G97A A107G A136G	0.07
U12C G93A U109C	0.11
U9C U15C U87C	0.14
U14C U52A A140G	1.18
U12A A107C A136G	0.96
U26C U39A A79G U91C U102A G125A A142G	0.51
U20G G36A A138U U143C	0.67
G4A A57G G72A A78G A107G A121G	0
U13C G32A U104C G114A A136G	1.2
G4A U9C U20C C71U	0.8
A6G U12C U102C	0.61
U23C A64U U108G	0.74
U5C C123U A129C U143C	0.69
A2U U20A U96A U100A	0.1

Variant	self-cleavage
U26C C61G A117G	0
U73C G126U U132C	1.26
U39G A138G A142G	2.34
U1A A57U A78G A142G	0.07
U14A G53U A64G U119C	0.11
U46C G93A C99U C113U U115C	0.06
U14G U62A A142G	0.09
U13C A31U U62C A77G U112C	0
U5C A6G U52A U73C	1.67
U13C U15A U96C C113U	0.26
C28G A77G A136G	0.92
U12C U14C U143A	0.68
U73C C99U A124G	0.9
U15C A67G A77G	1.23
U15C A59U U102A G144A	0.34
U20C G32A U39C G55A U104C	0.84
A24G G35C A42U U102A	1.16
U26A C38A U47C	0.78
A64G U102C C145U	0.52
U14C U46C G125U U143A	1.23
G55U G70U U87A U109C	0.01
